According to the supplement of paper PMC9446081:
About 220 (0.56%) of roughly 39,000 compounds showed activity. The list shows a part of the results.

Tested on: Escherichia coli K-12 BW25113
Assay: relative growth (OD600 normalised to plate interquartile mean) (fraction); higher = less growth inhibition, active = 0.2 or less
Conditions: 50 µM; LB; incubation time: overnight (16-24 h)
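Note: static incubation at 37 °C against the wild-type strain, values averaged over two biological replicates.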

Structure (SMILES) | relative growth
COc1ncc(NC(=O)C2CC2)c(OC)n1 | inactive: 1.03
CN(C)CCCNC(=O)[C@@H]1[C@@H](CO)[C@@H]2Cn3c(ccc(-c4ccncc4)c3=O)[C@H]1N2C(=O)C1CC1 | inactive: 0.938
C[C@H]1CN([C@@H](C)CO)C(=O)c2cc(NC(=O)Nc3ccc(F)cc3)ccc2O[C@@H]1CN(C)C(=O)Nc1cccc2ccccc12 | inactive: 0.953
C[C@H]1CN([C@@H](C)CO)C(=O)c2cc(C#Cc3ccccc3F)cnc2O[C@@H]1CN(C)S(=O)(=O)c1ccccc1 | inactive: 1.02
C[C@@H]1CCCCO[C@@H](CN(C)Cc2ccc(C(F)(F)F)cc2)[C@@H](C)CN([C@H](C)CO)C(=O)c2cc(NC(=O)CCCN(C)C)ccc2O1 | inactive: 0.948
Cc1ccc(S(=O)(=O)N(C)C[C@H]2OCCCC[C@@H](C)Oc3ccc(NC(=O)Nc4ccc(C(F)(F)F)cc4)cc3C(=O)N([C@@H](C)CO)C[C@H]2C)cc1 | inactive: 1.02
C[C@@H]1CN([C@@H](C)CO)C(=O)c2cc(NC(=O)Cc3ccccc3)ccc2O[C@@H](C)CCCCO[C@@H]1CN(C)Cc1ccncc1 | inactive: 0.973
CCS(=O)(=O)Nc1ccc2c(c1)C(=O)N(C)[C@@H]1CC[C@H](CC(=O)NCCCN3CCOCC3)O[C@@H]1CO2 | inactive: 1.02
C[C@H]1CN([C@@H](C)CO)C(=O)c2cc(C#Cc3cccc(F)c3)cnc2O[C@@H]1CN(C)C(=O)C1CCOCC1 | inactive: 0.99
C[C@@H]1CCCCO[C@@H](CN(C)Cc2ccc(C(F)(F)F)cc2)[C@H](C)CN([C@@H](C)CO)C(=O)c2cc(NC(=O)Nc3ccc(C(F)(F)F)cc3)ccc2O1 | inactive: 1
C[C@H](CO)N1C[C@H](C)[C@H](CN(C)C(=O)c2cccnc2)Oc2cc(C#CC3(O)CCCC3)ccc2S1(=O)=O | inactive: 1
COCC#Cc1cnc2c(c1)C(=O)N([C@H](C)CO)C[C@H](C)[C@@H](CN(C)S(=O)(=O)c1cn(C)cn1)O2 | inactive: 0.984
O=C1CCCSc2ccccc21 | inactive: 0.967
Cc1ccc(S(=O)(=O)Nc2ccc3c(c2)C(=O)N([C@H](C)CO)C[C@H](C)[C@@H](CN(C)S(=O)(=O)c2ccc(Cl)cc2)OCCCC[C@H](C)O3)cc1 | inactive: 1.02
CCC(=O)Nc1ccc2c(c1)OC[C@H](C)N(C(=O)CN1CCOCC1)C[C@H](C)[C@@H](OC)CN(C)C2=O | inactive: 0.967
CCNC(=O)N1CCCC[C@@H]1CO | inactive: 1.02
Cc1noc(C)c1NC(=O)Nc1ccc2c(c1)C(=O)N([C@H](C)CO)C[C@@H](C)[C@@H](CN(C)C(=O)C1CCCCC1)OCCCC[C@H](C)O2 | inactive: 0.838
C[C@@H]1CN([C@@H](C)CO)C(=O)c2cc(NC(=O)C3CCCCC3)ccc2O[C@@H](C)CCCCO[C@@H]1CN(C)C(=O)Nc1ccc(F)cc1 | inactive: 0.983
Cc1noc(C)c1NC(=O)Nc1ccc2c(c1)CC(=O)N([C@H](C)CO)C[C@H](C)[C@H](CN(C)CC1CC1)O2 | inactive: 1

Structure (SMILES) | relative growth
C[C@@H]1CN([C@H](C)CO)S(=O)(=O)c2ccc(-c3cncnc3)cc2O[C@@H]1CN(C)C(=O)c1cccc(F)c1 | inactive: 1.01
Cc1ccc(S(=O)(=O)Nc2cccc3c2O[C@H](CN(C)C(=O)NC(C)C)[C@H](C)CN([C@H](C)CO)C3=O)cc1 | inactive: 1.02
S=c1[nH]c2ccccc2s1 | inactive: 0.878
CC(C)(N)CO.Cn1c(=O)c2[nH]c(Br)nc2n(C)c1=O | inactive: 1.03
C[C@@H]1CCCCO[C@@H](CN(C)C(=O)Cc2ccccc2)[C@H](C)CN([C@H](C)CO)C(=O)c2cc(NS(=O)(=O)c3cccs3)ccc2O1 | inactive: 1.01
CCS(=O)(=O)N1C[C@]2(C1)CN([C@@H](CO)c1c2c2ccc(cc2n1C)OC)C(=O)Nc1c(noc1C)C | inactive: 0.994
COc1ccc(NC(=O)N(C)C[C@@H]2OCCCC[C@@H](C)Oc3ccc(NC(=O)Nc4c(C)noc4C)cc3C(=O)N([C@@H](C)CO)C[C@H]2C)cc1 | inactive: 1
COc1ccc(S(=O)(=O)N(C)C[C@H]2Oc3c(NC(=O)c4cnccn4)cccc3C(=O)N([C@@H](C)CO)C[C@@H]2C)cc1 | inactive: 1.01
CC(C)NC(=O)Nc1ccc2c(c1)C(=O)N([C@@H](C)CO)C[C@@H](C)[C@H](CN(C)C(=O)C1CCCCC1)OCCCC[C@@H](C)O2 | inactive: 0.995
CC(C)NC(=O)Nc1ccc2c(c1)C(=O)N([C@H](C)CO)C[C@@H](C)[C@@H](CN(C)S(=O)(=O)c1ccc(F)cc1)O2 | inactive: 1.02
C[C@@H]1CN([C@@H](C)CO)C(=O)c2cccc(NS(=O)(=O)c3ccc(Cl)cc3)c2O[C@H]1CN(C)Cc1ccc(C(F)(F)F)cc1 | inactive: 1.01
C[C@@H]1CN([C@H](C)CO)S(=O)(=O)c2ccc(C3=CCCC3)cc2O[C@@H]1CN(C)S(=O)(=O)c1ccc(F)cc1 | inactive: 1.01
C[C@H]1CN([C@@H](C)CO)C(=O)CCCn2nncc2CO[C@H]1CN(C)S(=O)(=O)c1ccc(C#N)cc1 | inactive: 1.01
COc1ccc(S(=O)(=O)N(C)C[C@H]2Oc3c(NS(=O)(=O)c4ccccc4)cccc3C(=O)N([C@@H](C)CO)C[C@@H]2C)cc1 | inactive: 0.887
C[C@@H]1CCCCO[C@@H](CN(C)Cc2ccc(Cl)c(Cl)c2)[C@@H](C)CN([C@@H](C)CO)C(=O)c2cc(NC(=O)NC3CCCCC3)ccc2O1 | inactive: 1.05
COc1ccc(CN(C)C[C@H]2Oc3ccc(NC(=O)C4CC4)cc3CC(=O)N([C@@H](C)CO)C[C@@H]2C)cc1 | inactive: 0.99
Cc1ccc(S(=O)(=O)Nc2ccc3c(c2)C(=O)N([C@@H](C)CO)C[C@@H](C)[C@H](CN(C)Cc2ccccc2)OCCCC[C@H](C)O3)cc1 | inactive: 0.999
C[C@@H]1CCCCO[C@@H](CN(C)C(=O)C2CCCCC2)[C@H](C)CN([C@H](C)CO)C(=O)c2cc(NS(=O)(=O)c3ccc(Cl)cc3)ccc2O1 | inactive: 1.01
Cc1ccc(S(=O)(=O)N(C)C[C@H]2Oc3ccc(NC(=O)C4CC4)cc3CC(=O)N([C@@H](C)CO)C[C@H]2C)cc1 | inactive: 1.02
